# In the BET-seq Pho4 binding data (Le et al. 2018):
# The other results are listed elsewhere or left out. The energies were worked out here from pooled read counts, against the library average; single values are noisy.
# Target: T1, Pho4 (S. cerevisiae) (UniProt P07270)
# T1 sequence: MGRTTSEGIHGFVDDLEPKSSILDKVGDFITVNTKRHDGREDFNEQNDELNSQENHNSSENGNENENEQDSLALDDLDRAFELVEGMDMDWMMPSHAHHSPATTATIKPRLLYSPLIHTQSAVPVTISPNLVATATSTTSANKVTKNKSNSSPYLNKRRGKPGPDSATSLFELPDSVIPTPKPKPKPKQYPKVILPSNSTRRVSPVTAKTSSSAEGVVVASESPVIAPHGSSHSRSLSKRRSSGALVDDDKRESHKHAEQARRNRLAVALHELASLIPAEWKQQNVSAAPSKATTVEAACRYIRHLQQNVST
# Assay: relative binding free energy (BET-seq); higher = weaker binding
# Conditions: reference: library average
row,Sequence,relative binding free energy
1,AGGAACACGTGAGGCT,0.46 kcal/mol
2,GGATTCACGTGTAGGC,0.22 kcal/mol
3,TGGTGCACGTGCTCGA,-0.05 kcal/mol
4,CTAGGCACGTGTTAAT,-0.13 kcal/mol
5,AATGACACGTGTGGGA,0.1 kcal/mol
6,GTGTACACGTGGGATC,-0.11 kcal/mol
7,CTGGACACGTGCGTGG,-0.16 kcal/mol
8,AGTGGCACGTGCGAGA,-0.13 kcal/mol
9,ATGAGCACGTGTTGTC,-0.17 kcal/mol
10,GGGGTCACGTGATACT,0.17 kcal/mol
11,GGGTTCACGTGTCTGG,0.29 kcal/mol
12,CTGGTCACGTGATTAG,0.2 kcal/mol
13,TTGTACACGTGGTCTG,-0.08 kcal/mol
14,CATTGCACGTGAGGGA,0.22 kcal/mol
15,GTGGTCACGTGCTGTG,0.11 kcal/mol
16,GTATTCACGTGGGAAG,0.23 kcal/mol
17,TGTTGCACGTGCGACG,0.01 kcal/mol
18,TATGGCACGTGGATGT,-0.18 kcal/mol
19,CCGTGCACGTGGGGGA,-0.28 kcal/mol
20,GGTGGCACGTGACGTG,0.08 kcal/mol
21,TATGGCACGTGGGTTT,-0.11 kcal/mol
22,GTAGGCACGTGTGATC,0.1 kcal/mol
23,GGGGACACGTGAGTGC,0.21 kcal/mol

row,Sequence,relative binding free energy
1,ATCGTCACGTGTTTAA,0.03 kcal/mol
2,TAGTTCACGTGGAGTG,0.22 kcal/mol
3,TTGTTCACGTGTTTCG,0.3 kcal/mol
4,TGCTGCACGTGGCGTA,-0.1 kcal/mol
5,TCAAACACGTGTGGTT,0.01 kcal/mol
6,GTAGTCACGTGTGTGT,0.3 kcal/mol
7,ATGTGCACGTGGGGGA,-0.06 kcal/mol
8,GGATTCACGTGTTGCG,0.31 kcal/mol
9,TAGTTCACGTGTGTAA,0.17 kcal/mol
10,CATGTCACGTGGTGGA,0.05 kcal/mol
11,TTGGGCACGTGATAGC,-0.13 kcal/mol
12,GTATACACGTGTAGTG,0.01 kcal/mol
13,TAAAGCACGTGGATGT,-0.03 kcal/mol
14,TTTACCACGTGTAGGA,0.02 kcal/mol
15,TCGGGCACGTGAGGCA,0.07 kcal/mol
16,TTGTACACGTGGTCAG,0.02 kcal/mol
17,AACGGCACGTGGGGTA,-0.29 kcal/mol
18,TCTGGCACGTGATGGT,-0.03 kcal/mol
19,TTTGGCACGTGAGCAA,0.04 kcal/mol
20,TCGGTCACGTGTAAAT,0.36 kcal/mol
21,GGGGGCACGTGGAGTA,-0.16 kcal/mol
22,GGGCTCACGTGTAGTT,0.35 kcal/mol
23,TTGAGCACGTGGTTTA,-0.21 kcal/mol

row,Sequence,relative binding free energy
1,GTGCGCACGTGTGTGG,-0.07 kcal/mol
2,CTGGACACGTGGGGAG,-0.08 kcal/mol
3,TGTTGCACGTGAGCAG,0.24 kcal/mol
4,AGTTACACGTGGCGGT,0.15 kcal/mol
5,TACTACACGTGATGGT,0.24 kcal/mol
6,TGCGGCACGTGCTGGA,-0.05 kcal/mol
7,TGTGGCACGTGAGTTG,0.17 kcal/mol
8,TCTGGCACGTGAGGTC,0.17 kcal/mol
9,GGGTTCACGTGACATA,0.38 kcal/mol
10,TTGGTCACGTGGGGTA,0.05 kcal/mol
11,CGTTGCACGTGAGGTA,0.16 kcal/mol
12,AAAGTCACGTGCGTTT,0.15 kcal/mol
13,TACATCACGTGGTGTA,-0.09 kcal/mol
14,TGGAGCACGTGTAGTG,0.02 kcal/mol
15,GCATTCACGTGCGGGG,0.26 kcal/mol
16,ATGTTCACGTGTACGG,0.16 kcal/mol
17,ATCTTCACGTGGGTCT,0.2 kcal/mol
18,TGCAACACGTGAGTTG,0.16 kcal/mol
19,TTCTACACGTGGGCTG,-0.04 kcal/mol
20,TAACTCACGTGGATTT,0.3 kcal/mol
21,GAGCGCACGTGGGAGA,0.04 kcal/mol
22,GGTTGCACGTGAGTAA,0.29 kcal/mol
23,GGTACCACGTGATGTT,0.02 kcal/mol

row,Sequence,relative binding free energy
1,TTTTTCACGTGTTAGA,0.3 kcal/mol
2,ATAATCACGTGTCTTG,0.13 kcal/mol
3,TATTTCACGTGTCCGT,0.21 kcal/mol
4,CGTGTCACGTGAGGAG,0.16 kcal/mol
5,TTTGACACGTGCAGGG,-0.06 kcal/mol
6,TTTGTCACGTGCCTAT,0 kcal/mol
7,TTGTCCACGTGGGTGG,-0.13 kcal/mol
8,ATGTACACGTGGGTAA,-0.1 kcal/mol
9,CTGTGCACGTGCATGT,-0.18 kcal/mol
10,GCGCTCACGTGGGGGT,0.04 kcal/mol
11,TGTATCACGTGATGAA,0.26 kcal/mol
12,GAGGGCACGTGTTGCA,-0.16 kcal/mol
13,TGGATCACGTGAGGGC,0.31 kcal/mol
14,GAGGCCACGTGGGCTG,-0.06 kcal/mol
15,TGTCCCACGTGGTGAG,-0.07 kcal/mol
16,GTAGTCACGTGGGTGT,0.03 kcal/mol
17,TGAGACACGTGTGAGT,0.22 kcal/mol
18,AGTTACACGTGAAAGT,0.3 kcal/mol
19,GAAGGCACGTGTTCAG,0.05 kcal/mol
20,AATGGCACGTGTATTA,0.05 kcal/mol
21,TCATTCACGTGTTTAG,0.24 kcal/mol
22,AAAGTCACGTGGTTTG,0.03 kcal/mol
23,TTTGGCACGTGCGCTC,-0.05 kcal/mol

row,Sequence,relative binding free energy
1,TTGGACACGTGTTTTC,0.04 kcal/mol
2,GAGTACACGTGAAGTG,0.46 kcal/mol
3,TATTGCACGTGGGCAT,-0.23 kcal/mol
4,GGCAGCACGTGAGTAT,0.33 kcal/mol
5,TGGTTCACGTGTCTTA,0.21 kcal/mol
6,ATTGACACGTGTCAGT,0.14 kcal/mol
7,AGTGCCACGTGGGTCT,-0.18 kcal/mol
8,GTTGGCACGTGCAGCG,-0.15 kcal/mol
9,AGGTTCACGTGGACTT,0.34 kcal/mol
10,GTTGGCACGTGGGGGT,-0.09 kcal/mol
11,TTATACACGTGGTGTC,-0.06 kcal/mol
12,AGATCCACGTGGGGAT,0.05 kcal/mol
13,CTCGTCACGTGAAGGT,0.29 kcal/mol
14,TGGACCACGTGGTGTG,-0.07 kcal/mol
15,GATCTCACGTGTGGGG,0.4 kcal/mol
16,TATTACACGTGTTTAG,0.08 kcal/mol
17,TTTTGCACGTGTGGGG,0.15 kcal/mol
18,GGGTTCACGTGTGTAG,0.26 kcal/mol
19,ATAAGCACGTGTGCGT,-0.21 kcal/mol
20,TTGAACACGTGGAGTA,0.14 kcal/mol
21,AGCGGCACGTGGTGAA,-0.05 kcal/mol
22,TTGTGCACGTGCTATT,0.07 kcal/mol
23,AAGTTCACGTGATGAA,0.36 kcal/mol
